This is one part of the list.
molecular target: T1, OsWOX13 (Oryza sativa, UniProt Q5QMM3 1-267); assay: protein-binding microarray (RPBM); PBS, 2% BSA, 51.3 ng/ul salmon testes DNA, 50 uM zinc acetate, 200 nM TF, 25 C, 1 h; high values mean tight binding; conditions: protein: recombinant; tags: N-terminal polyhistidine and DsRed monomer fusion (pET32a); label: CyDye5-dUTP incorporated in the synthesized complementary strand; 3' TTTTT single-stranded linker to array surface; dsDNA, one strand shown
T1 sequence: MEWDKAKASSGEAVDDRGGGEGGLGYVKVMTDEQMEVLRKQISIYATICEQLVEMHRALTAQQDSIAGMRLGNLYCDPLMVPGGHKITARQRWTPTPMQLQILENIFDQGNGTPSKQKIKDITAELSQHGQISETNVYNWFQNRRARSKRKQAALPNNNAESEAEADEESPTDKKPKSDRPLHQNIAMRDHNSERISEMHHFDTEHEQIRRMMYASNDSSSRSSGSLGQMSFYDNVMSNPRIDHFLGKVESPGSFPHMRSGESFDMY
Procedure, shortened: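 The binding signal is fluorescence intensity per array feature (arbitrary units). Readings came from an Axon 4000B scanner after a washed, 2% BSA-blocked, double-stranded custom Agilent array had been incubated for 1 h at 25 °C with 200 nM protein and 50 µM zinc acetate. The protein was a Ni–NTA-purified transcription factor fused N-terminally to polyhistidine and DsRed, expressed in E. coli BL21-CodonPlus.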

Row | Sequence | binding signal
1 | GGGTGATCAAATTTGTTTACTCCAAGTTGGTTAATTAGGGCGGAGTCACCTAGTGCAG | 8940 fluorescence intensity (a.u.)
2 | TATGGAGCTAAAGCCCAGCCAAACAGTTTCAACTCCACCTCGGAGTCACCTAGTGCAG | 6520 fluorescence intensity (a.u.)
3 | TGTTTGATTTGTATGGATATGACGATCTAATTTCTTATTTCGGAGTCACCTAGTGCAG | 16200 fluorescence intensity (a.u.)
4 | GAATGTTGTAATTACTCCCTCAGTCTTAATATGTAGCAACCGGAGTCACCTAGTGCAG | 7830 fluorescence intensity (a.u.)
5 | AATGTCCTGGGAAGTGATTGGTGGAATATTTCTGATCATGCGGAGTCACCTAGTGCAG | 10000 fluorescence intensity (a.u.)
6 | GTGATTGTATTCTCTCCTTGTGGTAGCTAGTAGTTCACATCGGAGTCACCTAGTGCAG | 6890 fluorescence intensity (a.u.)
7 | CTATCATATTGACAGCTTTGTAATTGCTTTTGACAGGTTCCGGAGTCACCTAGTGCAG | 26400 fluorescence intensity (a.u.)
8 | GTAGCAGCATAGAATTTTCATCAATCATATTCAAATACTCCGGAGTCACCTAGTGCAG | 3280 fluorescence intensity (a.u.)
9 | CAGTTAACGCCATAGATAAATTGGAAGCAAATAAAAGTACCGGAGTCACCTAGTGCAG | 3280 fluorescence intensity (a.u.)
10 | CAGAAAGATTGGTAATACTGTTACTGTTTTCGAGTGTCGACGGAGTCACCTAGTGCAG | 21600 fluorescence intensity (a.u.)
11 | ATCAATCACGTCGCCTTACCTAGCTAGCTACCTAGCTGGTCGGAGTCACCTAGTGCAG | 10800 fluorescence intensity (a.u.)
12 | ATGGATGATTGAACAACAATAGAGAATAAGGGAAAGGGTTCGGAGTCACCTAGTGCAG | 26400 fluorescence intensity (a.u.)
13 | TGCATCCATCTGCCAAAGATTTTCCAATCAATACATTGCCCGGAGTCACCTAGTGCAG | 3530 fluorescence intensity (a.u.)
14 | AAATAAGAAATAATTGATGTGATAATTATTAGGCCCCGCCCGGAGTCACCTAGTGCAG | 30200 fluorescence intensity (a.u.)
15 | CCTGACTACTCTGATTGTCATGCCAACAACTTGGCTTCGCCGGAGTCACCTAGTGCAG | 14500 fluorescence intensity (a.u.)
16 | CATTGATGGACTGGTCTCATGCAATTCTCCCAGCTCCACCCGGAGTCACCTAGTGCAG | 32600 fluorescence intensity (a.u.)
17 | AAGTATTGTAATTTCGGTGGATTAAGCTGATTTGTTGCTACGGAGTCACCTAGTGCAG | 4450 fluorescence intensity (a.u.)
18 | CTGTTAATTTATATACTATACAATAATGTTATAGTATTGCCGGAGTCACCTAGTGCAG | 34900 fluorescence intensity (a.u.)
19 | AGTTTGAAAATTTAAATTTTAACTTTTAACTTTAACTCGTCGGAGTCACCTAGTGCAG | 9590 fluorescence intensity (a.u.)
20 | GTGACAGGCTGATTGCTACCTTGCTTGGCGATCTGTGCTTCGGAGTCACCTAGTGCAG | 26400 fluorescence intensity (a.u.)
21 | GAAAGTAACTGAGATTATCGATGATATGAACATGTACATCCGGAGTCACCTAGTGCAG | 3710 fluorescence intensity (a.u.)
22 | ATCACTTCATTATCACATGACAGACCAACATATAATGATGCGGAGTCACCTAGTGCAG | 5210 fluorescence intensity (a.u.)
23 | ACTCTAATTAATCCCACTTCCTCTGTTTCCTCTGCATGCGCGGAGTCACCTAGTGCAG | 17700 fluorescence intensity (a.u.)
24 | AAAGATTGATAAATGGAGCGAATGGGTATGAAGTGGTGTTCGGAGTCACCTAGTGCAG | 25300 fluorescence intensity (a.u.)
25 | ACGTATATTCACAATTAAATGTGTTTCTTTCATTGTAACACGGAGTCACCTAGTGCAG | 3330 fluorescence intensity (a.u.)
26 | TTGTTTGATTTGTTAGGGGTGGTAAGAGCAGCCTTGTATTCGGAGTCACCTAGTGCAG | 21000 fluorescence intensity (a.u.)
27 | ACTAAACTGATAATATTTTCAAGCTATACAAATAAACTAGCGGAGTCACCTAGTGCAG | 22200 fluorescence intensity (a.u.)

Row | Sequence | binding signal
28 | GCTGTTAATAGGATTTACAATCCGGTGGAAACCGGACCAACGGAGTCACCTAGTGCAG | 3240 fluorescence intensity (a.u.)
29 | CGTAATTTTGGTATTTACATATGTAATGTAATTTTAAGACCGGAGTCACCTAGTGCAG | 25700 fluorescence intensity (a.u.)
30 | TTAATTGGTTAAATGATCTTTGTGACTTTAAAATTATTTCCGGAGTCACCTAGTGCAG | 22900 fluorescence intensity (a.u.)
31 | ATCCAGATTATAATAATCTTAAGCTGAATTAAACAGGCCTCGGAGTCACCTAGTGCAG | 6350 fluorescence intensity (a.u.)
32 | GTTTGGCTAATGGGATAGGGAATTGAATTCCCACCCACCACGGAGTCACCTAGTGCAG | 4880 fluorescence intensity (a.u.)
33 | CATCATATCGTTCCAATTTCAATCAAACTTTCAATTTTAGCGGAGTCACCTAGTGCAG | 4800 fluorescence intensity (a.u.)
34 | TGCTCCATGATTTGTCAAGGTGGAGGACACTGATTCGTTTCGGAGTCACCTAGTGCAG | 4200 fluorescence intensity (a.u.)
35 | CTTGTGAAGACTGCTTCTGATTGGCTATGCATAGCCACGACGGAGTCACCTAGTGCAG | 11500 fluorescence intensity (a.u.)
36 | ATCAAATTACAAGATTGCATATAAGTGAGAAGGATTGGGGCGGAGTCACCTAGTGCAG | 10900 fluorescence intensity (a.u.)
37 | TTATATATGATAATTATATATATGATAATTTGTTCAATGACGGAGTCACCTAGTGCAG | 9780 fluorescence intensity (a.u.)
38 | TCTGATGAAATGTACTACAGCTTGCTTAAAATTCATATGCCGGAGTCACCTAGTGCAG | 3790 fluorescence intensity (a.u.)
39 | TTGACTAATGATAATTTAGAGCCAATAGTTAGCTATACTACGGAGTCACCTAGTGCAG | 19700 fluorescence intensity (a.u.)
40 | ACCCGATTACATTTGATGAGCATAGTAGGCCATAAATTTGCGGAGTCACCTAGTGCAG | 7550 fluorescence intensity (a.u.)
41 | CCTTTTGATTTTACTACCTACTGATTGTAGTCATAGGTTCCGGAGTCACCTAGTGCAG | 15300 fluorescence intensity (a.u.)
42 | GCAGTAAGATAGACTGACATATATATTGGCAGTCAAAGTTCGGAGTCACCTAGTGCAG | 7100 fluorescence intensity (a.u.)
43 | CATAATTTGTTTCTGGGTTCTGCTGTTCTGCTCCTCCTCTCGGAGTCACCTAGTGCAG | 28500 fluorescence intensity (a.u.)
44 | ATTGGAATCCTGATTGCATAGGGTTTAACCTTATAGAAGCCGGAGTCACCTAGTGCAG | 5150 fluorescence intensity (a.u.)
45 | AACAAGCCCTAACTTAAATTGACAAATTTAACTCCAAATTCGGAGTCACCTAGTGCAG | 11900 fluorescence intensity (a.u.)
46 | CTTCAAATTGTGAGTTAATCTGGGCCAATATGGCAAATATCGGAGTCACCTAGTGCAG | 3780 fluorescence intensity (a.u.)
47 | ACTTGACTGAATAAACAAACGAGTGATCCAGAGAGGGGAGCGGAGTCACCTAGTGCAG | 34500 fluorescence intensity (a.u.)
48 | TCTGATTTAACTATAGGGATACAAGTAGGCCTATGTGGGTCGGAGTCACCTAGTGCAG | 32400 fluorescence intensity (a.u.)
49 | GTTCTAATTTCTAAATGTAATAGTAATGTATAGGCGTGGCCGGAGTCACCTAGTGCAG | 14200 fluorescence intensity (a.u.)
50 | GCTGGATACGTGATTTGCCTGGAATGCACTACGGTTGATTCGGAGTCACCTAGTGCAG | 4700 fluorescence intensity (a.u.)
51 | TGGAAATAAATCAGGATTGTTAGATTTTGAACGTGTGTATCGGAGTCACCTAGTGCAG | 5390 fluorescence intensity (a.u.)
52 | TAGTGCTAATTAACTAGAGGATGAGATAAGCCGTTGGACACGGAGTCACCTAGTGCAG | 16900 fluorescence intensity (a.u.)
53 | GCCTGATTATCCATTGTTCATCCTGCCATATTGATTTCAGCGGAGTCACCTAGTGCAG | 30300 fluorescence intensity (a.u.)
54 | GTCTTTAAATTTGTTATATGTAGCACAACCGTAAAAGGGCCGGAGTCACCTAGTGCAG | 4130 fluorescence intensity (a.u.)

— publication PMC7819943, “Rice protein-binding microarrays: a tool to detect cis-acting elements near promoter regions in rice”
